Each structure is given as a SMILES string. The list shows a part of the results. Shown are side measurements of this screen, not its main read-out; they come without a call. Compounds called inactive in the main read-out are mostly missing here.

A short description of the experiment: inhibitors of triacylglycerol accumulation, primary screen, cell-based, uHTS, fluorescence, H9c2 (AID 651582). The conditions noted are these: H9c2 cells, Nile Red lipid (TAG) fluorescence; measured here:; at 12.5 µM; cells loaded with 200 µM oleic acid.
With `COc1cc(/C=N/Nc2nc(C)nc3c2cnn3-c2ccccc2)ccc1O`, the DAPI nuclei signal change (viability), lower = more cytotoxic was found to be 19.6%.

Take `COc1cc(-c2cc(NC=O)c3ncc(-c4cccc(C(=O)N(C)C)c4)n3c2)cc(OC)c1OC`: the DAPI nuclei signal change (viability), lower = more cytotoxic is -26.1%.

Turning to `C[C@@H]1CN([C@@H](C)CO)C(=O)c2cccc(NC(=O)C3CCCCC3)c2O[C@@H]1CN(C)Cc1ccc(Cl)c(Cl)c1`, the DAPI nuclei signal change (viability), lower = more cytotoxic is -9.88%.

As for `Cc1cc(NC(=O)CSc2nc(-c3ccco3)cc(C(F)(F)F)n2)no1`, the DAPI nuclei signal change (viability), lower = more cytotoxic was -25%.

For the compound `CCOc1cc(/C=N\NC(=O)c2ccc(NC(=O)C(C)(C)C)cc2)ccc1OC(=O)c1cccc(C)c1`, the DAPI nuclei signal change (viability), lower = more cytotoxic is -15.6%.

With `COc1ccc(S(=O)(=O)N(C)C[C@H]2Oc3c(NC(=O)Nc4ccc(C(F)(F)F)cc4)cccc3C(=O)N([C@H](C)CO)C[C@@H]2C)cc1`, the DAPI nuclei signal change (viability), lower = more cytotoxic was -11.6%.

For `CC(C)c1ccc(Nc2ncc3c(n2)CCN(C(=O)Nc2ccc(F)c(Cl)c2)C3)cc1`, the DAPI nuclei signal change (viability), lower = more cytotoxic was -4.43%.

As for `O=C(/C=C/c1ccccc1)Oc1cccc2cccnc12`, the DAPI nuclei signal change (viability), lower = more cytotoxic is -20.2%.

With `Cc1cc(N/N=C/c2cccc([N+](=O)[O-])c2)nc(-n2nc(C)cc2C)n1`, the DAPI nuclei signal change (viability), lower = more cytotoxic is -30.3%.

For `C#CCOCCOCCOCCNc1nc(N2CCN(C(=O)CCCCCCCCCCNC(=O)[C@H](CCCCN)n3cc(C[C@@H](C)CC)nn3)CC2)nc(N2CCN(C(=O)CCCCCCCCCCNC(=O)[C@H](CCCCN)n3cc(C[C@@H](C)CC)nn3)CC2)n1`, the DAPI nuclei signal change (viability), lower = more cytotoxic was -37.5%.

`CC(=O)Nc1ccc(Sc2ccc([N+](=O)[O-])o2)cc1`: the DAPI nuclei signal change (viability), lower = more cytotoxic is -45.4%.

For `COCCCn1c(C(=O)Nc2ccc3c(c2)OCO3)cc2c(=O)n3cccc(C)c3nc21`, the DAPI nuclei signal change (viability), lower = more cytotoxic was -11.5%.

Regarding `COc1cc(C2c3cc4c(cc3OC(C)(N3CCCC3)C2C)OCO4)cc(OC)c1OC` (stereo not given), the DAPI nuclei signal change (viability), lower = more cytotoxic was -44.4%.

With `C[C@H]1CN([C@@H](C)CO)C(=O)c2cccc(NC(=O)Nc3ccc(C(F)(F)F)cc3)c2O[C@@H]1CN(C)Cc1ccc(Cl)c(Cl)c1`, the DAPI nuclei signal change (viability), lower = more cytotoxic is -3.18%.

Turning to `CN(C)CCCN1c2ccccc2Sc2ccc(Cl)cc21`, the DAPI nuclei signal change (viability), lower = more cytotoxic was -11.5%.

Take `O=C(N/N=C/c1ccc(Cl)cc1)c1sccc1OCc1ccc(F)cc1`: the DAPI nuclei signal change (viability), lower = more cytotoxic was -28.2%.

Take `COc1cccc(/C=N/Nc2nc3ccccc3[nH]2)c1O`: the DAPI nuclei signal change (viability), lower = more cytotoxic was -23.9%.

With `Cc1c(C#N)c(O)n(CCO)c(=O)c1N=Nc1ccc2c(c1)COC2=O`, the DAPI nuclei signal change (viability), lower = more cytotoxic is -35.4%.

As to `CCN(CC)S(=O)(=O)c1ccc(N2CCOCC2)c(NC(=O)c2[nH]c(C)c(C(C)=O)c2C)c1`, the DAPI nuclei signal change (viability), lower = more cytotoxic was -3.1%.

On to `O=C(Nc1cccc(Cl)c1)c1nc[nH]c1C(=O)NCCN(CCNC(=O)c1[nH]cnc1C(=O)Nc1cccc(Cl)c1)CCNC(=O)c1[nH]cnc1C(=O)Nc1cccc(Cl)c1`, for which the DAPI nuclei signal change (viability), lower = more cytotoxic was -1.2%.

`CC(C)(C)c1cc(Br)c(O)c(N=Nc2ccc(S(=O)(=O)N3CCOCC3)cc2)c1`: the DAPI nuclei signal change (viability), lower = more cytotoxic is -14.9%.

On to `COc1ccc(-c2sc3ccc(N4CCOCC4)cc3c2C#CC(C)(C)O)cc1`, for which the DAPI nuclei signal change (viability), lower = more cytotoxic was -7.65%.

In the case of `c1ccc(OCCNc2nc(NCC3CC3)nc3cc(-c4ccccc4)sc23)cc1`, the DAPI nuclei signal change (viability), lower = more cytotoxic is 5.71%.

Consider `COc1ccc(C2NCCc3c2[nH]c2ccccc32)cc1COc1ccc(F)cc1` (stereo not given), for which the DAPI nuclei signal change (viability), lower = more cytotoxic was -38.4%.

Regarding `CN(C)CCCNc1nc2sc3c(c2c(=O)n1CCc1ccccc1)CCCCC3`, the DAPI nuclei signal change (viability), lower = more cytotoxic was -10.3%.

Regarding `CCOC(=O)c1[nH]c(C)c(C(=O)Nc2ccccc2C)c1C`, the DAPI nuclei signal change (viability), lower = more cytotoxic is -38.7%.

Consider `COc1ccc(NC2=NC(=S)N(c3ccc(C)cc3)C23CCCCC3)cc1`, for which the DAPI nuclei signal change (viability), lower = more cytotoxic is -28.8%.

With `CC(C)(C)c1ccc(C(O)CCCN2CCC(C(O)(c3ccccc3)c3ccccc3)CC2)cc1` (stereo not given), the DAPI nuclei signal change (viability), lower = more cytotoxic is -9.66%.

Take `CCCCCC[N+](C)(C)CC/C=C1/c2ccccc2Sc2ccc(Cl)cc21`: the DAPI nuclei signal change (viability), lower = more cytotoxic was -1.94%.

On to `COCc1ccc(O)c2ncccc12`, for which the DAPI nuclei signal change (viability), lower = more cytotoxic is -45.5%.

Turning to `CC(C)Sc1nnc(NC(=O)c2ccco2)s1`, the DAPI nuclei signal change (viability), lower = more cytotoxic was -38.8%.

Consider `CC1(C)Cc2nc3sc4c(SCC(=O)NCc5ccco5)ncnc4c3cc2CO1`, for which the DAPI nuclei signal change (viability), lower = more cytotoxic is -21.4%.

Turning to `CN(C)CC(O)c1ccc(C=Cc2ccc(Cl)cc2)cc1` (stereo not given), the DAPI nuclei signal change (viability), lower = more cytotoxic is -40.5%.

On to `Cc1cc(=O)oc(C)c1C(=O)Nc1cccc(F)c1`, for which the DAPI nuclei signal change (viability), lower = more cytotoxic was -10.6%.

Regarding `O=C(c1ccoc1)N1CCN(c2cc(-c3cccc(F)c3)nc3cc(-c4cccc(Cl)c4)nn23)CC1`, the DAPI nuclei signal change (viability), lower = more cytotoxic was 119%.

In the case of `CSc1ccc2c(c1)N(CCC1CCCCN1C)c1ccccc1S2` (stereo not given), the DAPI nuclei signal change (viability), lower = more cytotoxic was -48.6%.

`Cc1noc(C)c1COc1cccc(C(=O)OCC(=O)N2CC(=O)Nc3ccccc32)c1`: the DAPI nuclei signal change (viability), lower = more cytotoxic was -34.9%.

For the compound `COc1cc2c3c(cccc3c1)C(=O)N(CCN1CCCC1)C2=O`, the DAPI nuclei signal change (viability), lower = more cytotoxic was -40.7%.

In the case of `CC(C)(Oc1ccc(Cl)cc1)C(=O)Nc1ccc2oc(-c3ccncc3)nc2c1`, the DAPI nuclei signal change (viability), lower = more cytotoxic came out at 8.87%.

For the compound `COc1ccc(CNC(=O)OCCN2CCN(S(=O)(=O)c3ccc(C)cc3)CCC2=O)cc1`, the DAPI nuclei signal change (viability), lower = more cytotoxic was -39.3%.

On to `COc1ccc(Nc2nc(Nc3ccc(OC)cc3)nc(-n3[nH]c(=O)c(C)c3C)n2)cc1`, for which the DAPI nuclei signal change (viability), lower = more cytotoxic came to 1.43%.

Consider `O=[N+]([O-])c1ccccc1N/N=C/c1c[nH]c2ccccc12`, for which the DAPI nuclei signal change (viability), lower = more cytotoxic was -21%.

Regarding `N#Cc1ccc(-c2cccs2)nc1SCc1cccnc1`, the DAPI nuclei signal change (viability), lower = more cytotoxic is -30.7%.

In the case of `CC(C)(C)c1ccc(/C=N/NC(=O)Cc2c[nH]c3ccccc23)cc1`, the DAPI nuclei signal change (viability), lower = more cytotoxic was -3.64%.

As to `c1ccc(-c2nc(SCc3nc4ccccc4[nH]3)c3oc4ccccc4c3n2)cc1`, the DAPI nuclei signal change (viability), lower = more cytotoxic was -1.57%.

The record behind these values is PubChem BioAssay AID651582 (Sanford-Burnham Center for Chemical Genomics, 2012).
